# The other results are listed elsewhere or left out. Each Rep nickase domain was tested in vitro on the same pool of single strands for 1 h at 37 °C with 3 µM enzyme; only the middle of the 90-letter strands is printed. Values are log2 of uncut reads against the no-enzyme pool; more negative means more cut, near 0 not cut, and no call is made. The scaling is to total reads; where an enzyme cuts many sequences, the uncut ones exceed 0.
# Key:
# Assay in all cases: uncleaved DNA left, log2 of reads against the no-enzyme library (log2 ratio); higher = less cleavage (more negative = more Rep cleavage of the k-mer); sequences stand for … in CTCGTCCG…ACCGGAGA
# [1] = test system: T1, Rep nickase domain of Muscovy duck circovirus
# T1 sequence (protein, residues 1-111, tag omitted): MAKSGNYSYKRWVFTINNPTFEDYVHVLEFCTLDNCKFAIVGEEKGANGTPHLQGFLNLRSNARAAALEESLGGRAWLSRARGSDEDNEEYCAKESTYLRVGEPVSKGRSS
# Procedure: (§1)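 A pool of 90-nt single-stranded DNAs with seven random bases just before the constant AC of the nick site (name = the seven bases) was cut by 3 µM recombinant His6-SUMO-tagged Rep nickase domain (300 nM DNA, 50 mM HEPES pH 8.0, 50 mM NaCl, 1 mM MnCl2, 1 h, 37 °C, three replicates). Uncut DNA was amplified and sequenced.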
# [2] = test system: T2, Rep nickase domain of banana bunchy top virus
# T2 sequence (protein, residues 1-94, tag omitted): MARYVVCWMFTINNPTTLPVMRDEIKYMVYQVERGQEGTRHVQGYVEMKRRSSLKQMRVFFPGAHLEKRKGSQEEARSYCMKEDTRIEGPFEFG
# Procedure: as §1
# [3] = test system: T3, Rep nickase domain of cabbage leaf curl virus
# T3 sequence (protein, residues 1-116, tag omitted): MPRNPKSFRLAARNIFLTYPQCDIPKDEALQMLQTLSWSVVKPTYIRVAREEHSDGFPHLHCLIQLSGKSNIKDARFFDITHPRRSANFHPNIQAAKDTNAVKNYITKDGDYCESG
# Procedure: as §1
# [4] = test system: T4, Rep nickase domain of chickpea chlorotic dwarf virus
# T4 sequence (protein, residues 1-124, tag omitted): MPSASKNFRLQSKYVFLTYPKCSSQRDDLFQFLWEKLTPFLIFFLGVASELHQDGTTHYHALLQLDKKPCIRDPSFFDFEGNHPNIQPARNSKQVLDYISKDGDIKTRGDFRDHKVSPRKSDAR
# Procedure: as §1
# [5] = test system: T5, Rep nickase domain of faba bean necrotic yellows virus
# T5 sequence (protein, residues 1-98, tag omitted): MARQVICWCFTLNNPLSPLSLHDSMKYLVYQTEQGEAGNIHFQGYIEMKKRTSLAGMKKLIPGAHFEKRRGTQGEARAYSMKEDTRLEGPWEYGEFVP
# Procedure: as §1
# [6] = test system: T6, Rep nickase domain of maize striate mosaic virus
# T6 sequence (protein, residues 1-117, tag omitted): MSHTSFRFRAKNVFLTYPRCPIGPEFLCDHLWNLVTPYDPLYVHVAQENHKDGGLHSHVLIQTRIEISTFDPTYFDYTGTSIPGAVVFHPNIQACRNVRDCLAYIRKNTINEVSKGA
# Procedure: as §1
# [7] = test system: T7, Rep nickase domain of porcine circovirus 2
# T7 sequence (protein, residues 2-116, tag omitted): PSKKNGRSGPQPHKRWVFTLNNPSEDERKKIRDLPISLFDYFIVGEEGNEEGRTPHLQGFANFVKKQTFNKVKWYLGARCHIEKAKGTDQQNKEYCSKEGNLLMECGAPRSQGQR
# Procedure: as §1
# [8] = test system: T8, Rep nickase domain of tomato yellow leaf curl virus
# T8 sequence (protein, residues 1-136, tag omitted): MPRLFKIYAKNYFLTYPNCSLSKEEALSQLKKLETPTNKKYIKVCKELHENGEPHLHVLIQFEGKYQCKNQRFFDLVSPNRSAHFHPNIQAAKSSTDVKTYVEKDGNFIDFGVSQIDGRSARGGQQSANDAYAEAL
# Procedure: as §1
# [9] = test system: T9, Rep nickase domain of wheat dwarf virus
# T9 sequence (protein, residues 1-137, tag omitted): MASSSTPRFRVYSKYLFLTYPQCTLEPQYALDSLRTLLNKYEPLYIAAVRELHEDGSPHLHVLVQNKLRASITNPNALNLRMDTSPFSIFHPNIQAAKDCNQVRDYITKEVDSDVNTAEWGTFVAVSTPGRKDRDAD
# Procedure: as §1
Sequence,uncleaved DNA left (log2) [1],uncleaved DNA left (log2) [2],uncleaved DNA left (log2) [3],uncleaved DNA left (log2) [4],uncleaved DNA left (log2) [5],uncleaved DNA left (log2) [6],uncleaved DNA left (log2) [7],uncleaved DNA left (log2) [8],uncleaved DNA left (log2) [9]
CACGCTA,0.0838,-0.0728,-0.156,-1.9,-0.0863,-0.336,-0.028,-0.149,-0.141
TCTCAGT,0.144,0.0531,0.169,-0.101,0.0821,-0.454,0.0634,0.156,0.152
GGTGGTT,0.128,0.0465,0.546,1.17,-0.052,1.95,0.123,0.00924,0.134
CGACTCG,-0.084,-0.0667,-0.305,0.294,-0.0659,0.301,-0.00847,-0.241,-0.0153
CGCTGCT,-0.455,-0.213,-0.394,-0.723,-0.224,-0.845,-1.45,-0.118,-0.226
CTCGACA,-0.0646,-0.168,-0.0316,-1.04,-0.157,-0.103,-0.175,-0.0273,-0.0592
ACGACTG,0.0844,0.0622,0.024,0.663,-0.000432,1.77,0.187,-0.0332,0.136
ACCTCGA,-0.017,-0.0378,-0.621,-0.737,0.0325,-1.08,0.0013,0.0246,0.0341
TCTGGGA,0.163,0.0223,0.16,0.232,-0.0583,-0.155,0.0718,-0.0255,-0.0479
GTGACCT,0.0278,0.0273,0.411,1.14,-0.0944,1.62,0.0142,-0.0358,0.0657
AGTGACT,0.104,0.0446,0.0294,0.712,-0.015,1.71,-0.0584,-0.036,0.0607
CTCGTAT,0.104,0.0924,0.203,-0.512,0.159,-0.257,0.0346,0.0877,0.21
ATTAAGC,-0.0161,0.0221,-0.216,-0.451,0.0578,-1.23,0.143,0.101,0.0141
GAACTGG,-0.122,-0.0508,0.35,0.963,-0.16,1.15,0.124,-0.0438,0.0207
AACGATT,0.148,-0.146,-0.178,-2.09,0.0355,0.622,-0.575,-0.103,0.0256
CTCGACT,0.0194,-0.0804,0.0853,-0.328,-0.0186,0.862,-0.516,0.0651,0.0492
GGCGGCT,-0.0736,-0.111,0.0742,0.677,-0.115,1.73,-0.0971,-0.0699,-0.101
CCGGAAG,0.145,0.049,-0.563,-0.318,0.204,-0.541,0.234,-0.042,-0.0466
TCTTGAA,0.106,0.086,0.134,-0.446,0.137,-0.524,0.0584,0.192,0.0352
CAGTGTA,-0.0726,-0.731,-0.196,-1.2,-0.374,-0.565,-2.6,0.106,0.0673

Sequence,uncleaved DNA left (log2) [1],uncleaved DNA left (log2) [2],uncleaved DNA left (log2) [3],uncleaved DNA left (log2) [4],uncleaved DNA left (log2) [5],uncleaved DNA left (log2) [6],uncleaved DNA left (log2) [7],uncleaved DNA left (log2) [8],uncleaved DNA left (log2) [9]
ACTAGCG,0.0784,0.154,0.293,1.67,0.0538,1.66,0.145,0.198,-0.0106
CAGATGT,0.0376,-0.209,0.0467,-0.257,-0.0911,0.0826,-3.04,0.0322,0.00184
GGAGTCA,0.00826,0.145,0.828,1.73,-0.00478,2.08,0.161,0.135,0.181
CGCTGTG,0.079,-0.0796,-0.695,-0.263,-0.0359,-0.826,0.011,-0.0533,-0.0743
GGTGTCT,0.0331,-0.0477,0.58,1.42,-0.0632,2.01,0.0182,0.0595,-0.0105
TAACGCA,-0.016,-0.0538,-1.04,-2.4,-0.101,-0.773,-0.0827,0.00927,-0.273
TCCCGTG,0.0859,0.172,-0.346,-0.471,0.106,-0.689,0.151,0.172,0.00156
GTAATAC,-0.00941,0.179,0.249,0.737,0.0825,1.69,-0.963,0.147,0.0487
TACTATA,-1.44,-0.318,-0.507,-2.87,-0.152,-0.648,-3.17,-0.0191,-0.118
GGGCCAG,0.114,0.0991,0.865,2.07,-0.00691,2.29,0.306,-0.0266,0.212
TTCCTCA,-0.0171,0.155,0.0801,-0.762,0.0642,-0.106,-0.031,0.128,0.172
ATACCTC,-0.00936,-0.112,0.096,-0.115,0.0419,0.175,-0.091,-0.121,-0.129
AGTGGCT,0.143,0.127,0.0365,0.611,0.0973,1.41,-0.145,0.0693,0.179
CGCATTG,0.141,0.00636,-0.207,0.186,-0.0385,-0.0416,0.0411,0.124,-0.0182
CGTCCCA,-0.0139,-0.0209,0.138,-0.235,-0.0103,-0.0255,-0.261,-0.0669,0.158
GTGCCTT,-0.00235,-0.0417,0.292,0.73,-0.0716,1.48,0.0824,0.0813,0.088
CTGATGC,0.00233,-0.0227,-0.48,-0.58,0.00903,-0.942,0.17,-0.00445,-0.136
AACCGTG,0.124,0.0405,-0.552,-0.683,0.0638,-0.97,-0.12,0.0826,-0.146
GACATCG,0.0953,0.0221,-0.746,-0.292,0.125,-0.839,0.168,0.113,0.0434
GTCACCA,-0.0318,0.132,0.335,0.838,0.0586,1.68,0.0768,0.103,0.136

Sequence,uncleaved DNA left (log2) [1],uncleaved DNA left (log2) [2],uncleaved DNA left (log2) [3],uncleaved DNA left (log2) [4],uncleaved DNA left (log2) [5],uncleaved DNA left (log2) [6],uncleaved DNA left (log2) [7],uncleaved DNA left (log2) [8],uncleaved DNA left (log2) [9]
GATCCAC,0.0465,0.0631,0.285,0.677,0.032,0.681,0.0295,0.0836,0.201
TTTAAAG,-0.0504,-0.211,-0.819,-0.61,-0.0271,-1.21,0.111,-0.066,-0.0608
GACAACG,-0.0228,-0.0769,-0.787,-0.786,-0.0509,-1.21,0.0616,-0.0384,-0.0577
GGGGCAC,-0.0619,0.0818,0.78,2.04,-0.0732,2.24,0.202,-0.0358,0.0917
CTTGGTA,0.0122,0.0665,0.36,1.16,0.0126,1.11,-0.0353,0.183,-0.000839
AGGCAGT,0.0828,0.135,0.434,0.963,0.0212,0.775,0.21,0.123,0.166
TCGCTTA,0.0659,-0.0648,0.118,-1.07,-0.023,-0.382,-0.176,-0.0103,-0.0799
TCAGAAT,0.0037,0.0603,0.313,0.747,0.00218,1.24,0.133,-0.0796,0.057
CGATCTC,-0.0271,0.000279,-0.0734,0.201,-0.0851,0.856,-0.012,-0.00845,0.0796
ATCTGAT,-0.0802,-0.0656,-0.0552,0.527,-0.142,0.986,-1.31,-0.0394,-0.00128
ATGAGTA,0.0768,0.0703,-0.194,-0.941,0.167,-0.775,-0.245,0.0241,-0.12
CGCGACT,0.0256,0.117,0.00651,0.584,0.115,1.59,0.0927,-0.0353,0.142
TCAACGC,0.0841,0.0316,-0.0708,-0.77,0.0876,-0.759,0.145,-0.0848,-0.0611
CATTGTT,-3.57,-3.84,-2.14,-2.91,-1.07,-1.85,-3.85,0.0454,-0.672
CTCTGGT,-0.131,-0.0554,0.045,0.0803,0.0101,0.314,-1.02,-0.0378,-0.0785
CAAAGCA,-0.12,-0.0457,-0.281,-1.22,0.0162,-0.948,-0.119,-0.0958,-0.0824
CCTCCAG,0.0952,0.0509,-0.592,-0.424,0.00561,-0.949,0.25,0.163,-0.102
AGTCGCG,0.0287,0.0101,-0.803,0.301,0.0388,-0.583,0.212,-0.00944,-0.0303
GGGAAGA,0.0128,0.107,0.911,2.1,0.0575,2.25,0.309,0.036,0.125
ACTCCTC,-0.068,-0.0356,-0.0554,0.231,0.0228,0.172,-0.0879,-0.107,-0.0631

# Reference: the supplement of paper PMC7826260
